Experimental data: PubChem BioAssay (NCI)
Several values for one entry are separate records, joined by “and”; a condition that tells them apart may be missing. Identical values can stand only once.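 Cells were grown in 96-well plates and exposed to each compound for 48 hours at five concentrations; endpoints were interpolated linearly between bracketing concentrations, or set to the highest concentration if not reached. Here, GI50 denotes the concentration required for 50% inhibition of growth. Definition used: TGI = concentration required for complete inhibition of growth.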

System: NCI-H322M lung
Assay: growth of human tumour cells (NCI), 48 h

| SMILES | TGI | GI50 |
| --- | --- | --- |
| CC(/C(=N\Nc1ccccc1)c1ccc(O)cc1)C1C(=O)Oc2ccccc21 (centres undefined) | > 100 µM | – |
| COC(CC1(/C=C/O[Si](C(C)C)(C(C)C)C(C)C)C(=O)N(C)c2ccccc21)OC (centres undefined) | > 100 µM | – |
| CNC(=O)OCc1c2ccncc2c(C)c2c1[nH]c1ccccc12 | 1.56 µM | – |
| O=C(c1ccccc1)[C@H]1Nc2ccc(Cl)cc2C2c3ccccc3CC21 (some centres undefined) | > 100 µM | – |
| CC1CC[C@@]2(OC1)OC1CC3C4CCC5C[C@@H](OC6OC(CO)C(OC7OC(CO)C(O)C(OC8OC(CO)C(O)C(OC9OC(CO)C(O)C(O)C9O)C8O)C7OC7OC(CO)C(O)C(O)C7O)C(O)C6O)[C@H](O)C[C@]5(C)C4CC[C@]3(C)C1[C@@H]2C (some centres undefined) | > 80.5 µM | – |
| N#Cc1ccccc1NC(=O)C(=O)c1c(O)c2ccccc2oc1=O | > 100 µM | – |
| Cc1cc(S(=O)(=O)Nc2cc(N)[nH]n2)c(SCc2nc(N)nc(N(C)C)n2)cc1Cl | > 10 µM | – |
| COC(=O)[C@@H]1CN(C(C)=O)C(=O)N1C(=O)OCc1ccccc1 | > 100 µM | – |
| CCOC(=O)CSc1nnc2cc(CN3CCCC3)c(-c3ccc(Cl)cc3)nn12 | 76.1 µM | – |
| c1ccc(CNCCCCNCCCNCc2ccccc2)cc1 | 50 µM | – |
| Cc1ccc(C(SCC(N)C(=O)O)(c2ccc(C)cc2)c2ccc(C)cc2)cc1 (centres undefined) | 20.5 µM | 0.999 µM |
| CS(=O)(=O)Nc1ccc(-c2cc(-c3ccccc3)cc(C(N)=O)c2N)cc1 | > 25 µM | > 25 µM |
| Oc1ccc(O)c(-c2cn3ccsc3n2)c1 | 25.2 µM | 10.2 µM |
| CC(=O)Oc1ccccc1/C=C/C(=O)/C=C/c1ccccc1OC(C)=O | 5.56 µM | – |
| Oc1ccc(N=C2CCC(=C(c3ccccc3)c3ccc(Nc4ccc(O)cc4)cc3)CC2)cc1 | > 100 µM | – |
| C/C(=C\CCc1ccoc1)CC/C=C(\C)CCCN1CCOCC1 | 26.7 µM | 12.9 µM |
| CNCc1cc(OC)ccc1-c1ccc(OC)c(OC)c1OC | > 100 µM | – |
| CC1SC2=NC3=C(c4ccccc4C3=O)C(c3ccc(Cl)cc3)N2C1=O (centres undefined) | > 100 µM | – |
| Nc1nc2c(s1)CCc1c-2c(Br)n(Cc2ccccc2)c1Br | 47.3 µM | 19.1 µM |
| Cn1cc(C2=C(c3cn(C)c4c([N+](=O)[O-])cccc34)C(=O)NC2=O)c2ccccc21 | > 25 µM | > 25 µM |
| CC(=O)c1cc(C(=O)c2ccc3c(c2)Sc2ccccc2N3)c2c(C)cc(C)cn12 | > 100 µM | 0.615 µM |
| COc1cccc(/C=N/[N-]C(N)=O)c1[O-].[Ni+2].[OH3+].c1ccc(-c2ccccn2)nc1 | > 100 µM | – |
| Cc1ccc2ncnc(N(CC(C)C)CC(C)C)c2c1 | 35.1 µM | 19.4 µM |
| CCc1c(Cc2[nH]c(Cc3[nH]c(C=O)c(C)c3CC)c(CC)c2CC)[nH]c(C=O)c1C | > 100 µM | – |

| SMILES | TGI | GI50 |
| --- | --- | --- |
| O=C(/C(=C\c1ccc([N+](=O)[O-])cc1)S(=O)Cc1ccc(F)cc1)c1ccc(F)cc1 (centres undefined) | 6.79 µM | 2.29 µM |
| Clc1ccc2c(c1)N(c1ncnc3ccc(-c4cnc5[nH]ccc5c4)cc13)CC2 | 35.4 µM | 5.32 µM |
| Clc1ccc2c(c1)N(CCCN1CCCC1)c1ccccc1S2 | 23.6 µM | 10.6 µM |
| CCN(CC)CCNC(=O)c1cc2cc(NC(=O)c3cc4cc(NC(=O)c5cc6cc(N)ccc6[nH]5)ccc4[nH]3)ccc2[nH]1 | > 100 µM | – |
| Cl.Fc1c[c-]c(-c2ccccn2)c(F)c1.[Pt].c1ccc(P(c2ccccc2)C([PH+](c2ccccc2)c2ccccc2)[PH+](c2ccccc2)c2ccccc2)cc1 | 17.2 µM | 3.32 µM |
| CCCCCCCCN(CCCCCCCC)CCCCCCNc1cc(OC)cc2cccnc12 | 30.3 µM | 14.8 µM |
| Cc1ccc(N=Nc2ccc(O)c(CN(C)C)c2)cc1 | > 100 µM | – |
| O=C1CCC2CC(C(=O)c3ccccc3)CCC2CN1 (centres undefined) (tested in a mixture with another compound) | > 100 µM | – |
| CC(=O)NC1=C(NCCN(C)C)C(=O)c2ccccc2C1=O | > 50 µM | – |
| COc1ccc(OCc2ccc3nc(-c4ccccc4)c(Cl)nc3c2)cc1 | > 100 µM | – |
| C=CC(=O)NCc1cccc(Nc2ncc(Br)c(NCCCNC(=O)C3CCC3)n2)c1 | 9.47 µM and 14.4 µM | 2.16 µM and 1.78 µM |
| O=c1oc2ccccc2c(O)c1/C=N/C(=S)NCCc1ccccc1 | > 100 µM | – |
| C[C@]12CC/C(=N\O)C=C1CC[C@@H]1[C@@H]2CC[C@]2(C)C(=N/O)/C(=C/c3ccc([N+](=O)[O-])cc3)C[C@@H]12 | 65.1 µM | – |
| COC(=O)/C=C(\C(=O)OC)c1c2c3c(cc(OC)c(OC)c3c3ccccc13)CCN2C | > 100 µM | – |
| CCC[C@H](NS(=O)c1ccc(C)cc1)C(C(=O)OCC)=C(c1ccccc1)c1ccccc1 (some centres undefined) | 53.5 µM | – |
| COC(=O)C(Cc1cc(OC)c(OC)c(OC)c1)c1ccc(OC)cc1 (centres undefined) | > 100 µM | – |
| CCOC(=O)C1C2CCC(C2)C1(CCl)C(=O)OCC (centres undefined) | > 100 µM | – |
| Clc1cc(Cl)cc(C2ON=C(c3ccccc3)N2C23CC4CC(CC(C4)C2)C3)c1 (centres undefined) | > 10 µM | – |
| O=C(Nc1ccccc1)N(C1=NCC(CI)S1)c1ccc(F)cc1F (centres undefined) | > 100 µM | – |
| O=C(c1ccccc1)c1ccc(Oc2ccc([N+](=O)[O-])cc2[N+](=O)[O-])cc1 | 25.9 µM | 12 µM |
| CC1(C)C(O)C[C@@H](O)[C@@]2(C)C1CC[C@]1(C)C2C[C@@H](O)[C@@H]2C([C@@]3(C)CC[C@@H](C(C)(C)O)O3)CCC21C (some centres undefined) | 39.2 µM | – |
| CN(C)P(=O)(Oc1ccc(CC(NC(=O)OCc2ccccc2)C(=O)OCc2ccccc2)cc1)N(C)C (centres undefined) | 36.6 µM | – |
| O=C1c2ccccc2S(=O)(=O)N1CSC(=S)N1CCCCC1 | > 100 µM | > 100 µM |
| CCN(CC)c1ccc2cc(C(=O)Nc3ccccc3)c(=N)oc2c1 | > 100 µM | – |

| SMILES | TGI | GI50 |
| --- | --- | --- |
| Nc1cc(N2CCCC2)nc(=O)n1-c1ccccc1 | > 100 µM | – |
| c1ccc([P+](Cc2ccccc2C[P+](c2ccccc2)(c2ccccc2)c2ccccc2)(c2ccccc2)c2ccccc2)cc1 | > 100 µM | – |
| CC(=O)NC(CCC(=O)C=[N+]=N)C(=O)O (centres undefined) | > 100 µM | – |
| C=CC(C1=CC(=O)C(OC)=CC1=O)c1ccccc1 (centres undefined) | 31.8 µM | – |
| COC(=O)c1c(O)ccc2c1c1c(n2Cc2ccc(Cl)cc2Cl)C(=O)c2ccccc2C1=O | 27.8 µM | – |
| COC1=CCC=C(C[C@@H]2NCCc3cc(OC)c(OC)cc32)C1 | > 100 µM | – |
| COc1ccc(C(CC(=O)C(C)(C)CN2CCCCC2)SCCS(=O)(=O)O)cc1 (centres undefined) | > 100 µM | – |
| NC(N)=N/N=C/c1c(-c2cc(Cl)sc2Cl)nc2sccn12 | 2.65 µM | 1 µM |
| CC(C)(C)Nc1noc(=O)n1C(C)(C)C | > 100 µM | – |
| CC(NC(=O)C(N)CC(=O)O)NC(=O)C1CCC1 (centres undefined) | > 100 µM | – |
| CC(=O)c1ccc(OCC(O)CO)cc1 (centres undefined) | > 100 µM | – |
| NC(=O)CCC(N=C(N)c1csc(C2OC(CO)C(O)C2O)n1)C(=O)O (centres undefined) | > 100 µM | – |
| O=C1NC(=O)C2(CCCCCC2)N1 | > 100 µM | – |
| CC(=O)Nc1ccc2[nH]c(-c3cccc(Cl)c3)cc(=O)c2c1 | > 100 µM | – |
| COc1ccc2cc(C(=O)O)ccc2c1OC | > 100 µM | – |
| CCCCCCCCCCCCCC1=NCCN1CCO | 20.8 µM | 5.55 µM |
| O=C1Nc2c(C(F)(F)F)cccc2[C@@]1(c1ccc(O)cc1)c1ccc(OC(F)(F)F)cc1 | < 0.01 µM | < 0.01 µM |
| Cc1ccc(-c2cc(C(F)(F)F)nn2-c2ccc(S(N)(=O)=O)cc2)cc1 | 53.4 µM | – |
| C=C(C)[C@H]1C=C[C@@H](OC(=O)c2cccnc2)[C@@]23CO[C@@](C)([C@H](OC(=O)c4cccnc4)[C@@]4(OC(C)=O)C[C@H](C)[C@H](OCCC)[C@@H]4[C@H]2OC(C)=O)[C@H]13 | > 15 µM | – |
| COc1ccc(C2CC(c3cc(C)ccc3O)=NC(N)=N2)cc1 (centres undefined) | > 100 µM | – |
| O=C1C(=O)c2c(nc3ccc(Br)cn23)-c2ccccc21 | 3.17 µM | 1.77 µM |
| Nc1nc(OCc2cc(Br)cs2)c2[nH]cnc2n1 | > 100 µM | 20.5 µM |
| c1cc2[nH]ncc2cc1-c1nc2ccc3[nH]ncc3c2c2c1CCCC2 | 8.53 µM | 1.19 µM |
| CC(=O)CSc1c(-c2ccccc2)c(=O)n(-c2ccccc2)c(=S)n1-c1ccccc1 | > 100 µM | – |

| SMILES | TGI | GI50 |
| --- | --- | --- |
| CC1(C)CCC2=C(O1)c1ccccc1C(=O)C2=O | 3.07 µM and 2.39 µM | 1.69 µM |
| CCOC(=O)C(C)NC(=O)C(C)NC(=O)C(C)NC(=O)C(C)NC(=O)C(C)NC(=O)OCc1ccccc1 (centres undefined) | > 100 µM | – |
| CCOC(=O)CSC(=O)NCCCl | > 100 µM | – |
| Cc1ccc(Nc2c(C#N)[n+]([O-])c3cc(Cl)ccc3[n+]2[O-])cc1 | > 100 µM | – |
| O=CNc1ncn[nH]1 | > 100 µM | – |
| NC(=S)N/N=C1\NC(=O)/C(=C/c2ccc3c(c2)OCO3)S1 | 83 µM | – |
| CC(=O)OC1CCCn2c1nc1c2C(=O)C(C)=C(N2CC2)C1=O (centres undefined) | 2.37 µM | – |
| CC1=C/C(=N\O)C(C(O)(C(F)(F)F)C(F)(F)F)C(C)(C)C1 (centres undefined) | > 10 µM | – |
| [O-][n+]1ccccc1S | 57 µM | – |
| Cc1nc2c(=O)n(-c3ccccc3)c3ccccc3c2o1 | > 100 µM | – |
| CN(N)c1cc(=O)[nH]c(=O)[nH]1 | > 100 µM | – |
| O=P1(Oc2ccccc2)N(CCCl)CCN1c1ccccc1 (centres undefined) | > 100 µM | – |
| O=[N+]([O-])c1ccc(Sc2ncnc3nc[nH]c23)c2nonc12 | > 100 µM | 13.8 µM |
| COc1ccc(C(=O)c2cc(OC)c(OC)c(OC)c2)cc1/C=C/C(=O)c1ccc(OC)c(OC)c1 | > 100 µM | 8.89 µM |
| O=C(N/N=C/c1cc(Cl)cc(Cl)c1[O-])c1ccccc1O.O=C(N/N=C/c1cc(Cl)cc(Cl)c1[O-])c1ccccc1O.[Zn+2] | 14.8 µM | 0.955 µM |
| COc1ccc2[nH]cc([C@@H]3C4CCC(C4)[C@H]3NCc3cccc(CN[C@H]4C5CCC(C5)[C@@H]4c4c[nH]c5ccc(OC)cc45)c3)c2c1 | 2.84 µM and 3.07 µM | – |
| COC(=O)[C@]12CC[C@@H](C)[C@H](C)[C@@H]1C1=CC[C@@H]3[C@@]4(C)C(C=O)=C[C@@](C)(COC(C)=O)C4=CC[C@@]3(C)[C@]1(C)CC2 | 26.8 µM | 7.29 µM |
| Cc1cc2c(cc1C)[n+](=O)c(C(=O)C/C(=N/OCCCc1ccccc1)C(=O)Nc1cc(Cl)ccc1Cl)c(C)n2[O-] | > 100 µM | – |
| C=C(C)[C@@]1(OC(=O)c2cc([N+](=O)[O-])cc([N+](=O)[O-])c2)C[C@@H]2CCCC[C@@H]21 | > 100 µM | – |
| O=C(c1ccccc1)c1ccc(-n2c3ccccc3c3ccc4c(c32)C(=O)C=CC4=O)cc1 | 35.9 µM | – |
| COc1ccc2c(c1)[nH]c(=O)c1c3cc(OC)ccc3cn21 | 2.11 µM | 0.178 µM |
| CN(Cc1cc(Br)cc(Br)c1O)Cc1cc(Br)cc(Br)c1O | 19.1 µM | 1.15 µM |
| O=C(c1ccccc1)N1C2CCC1C(C(F)(F)F)=C2C(F)(F)F | > 100 µM | – |
